From paper PMC9071441
Where a chain is given by its changes, count along the chain named. No constants are given. Whether binding was seen depends on the method and setting. In cells and extracts the contact can be indirect. Some entries that bind do so weakly or less than the wild type. Sequences can lack the tags named with a protein. Blank lines part the entries; values can stand above or below the substance they belong to.

By UniProt entry, the sequences of proteins in these tests, tags left out. Where a name states a change or a piece, a line headed by the entry shows the natural chain unless it says otherwise.
UniProt P23772: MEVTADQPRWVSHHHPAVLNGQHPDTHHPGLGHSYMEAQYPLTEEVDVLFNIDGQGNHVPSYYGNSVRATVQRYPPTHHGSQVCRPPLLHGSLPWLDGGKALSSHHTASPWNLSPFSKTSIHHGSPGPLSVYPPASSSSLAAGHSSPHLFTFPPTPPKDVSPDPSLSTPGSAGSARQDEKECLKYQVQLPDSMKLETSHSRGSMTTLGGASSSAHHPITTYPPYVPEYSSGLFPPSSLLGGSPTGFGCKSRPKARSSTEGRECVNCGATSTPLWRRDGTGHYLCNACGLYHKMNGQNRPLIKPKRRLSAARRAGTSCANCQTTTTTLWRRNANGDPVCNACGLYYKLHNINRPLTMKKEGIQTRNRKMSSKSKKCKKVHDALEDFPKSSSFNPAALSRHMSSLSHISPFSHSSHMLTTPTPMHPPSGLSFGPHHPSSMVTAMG

Assays:
[1] = target: T1, mNeonGreen-tagged full-length T-bet (mouse) (UniProt Q9JKD8); assay: co-IP; HEK293T cells transiently transfected with mNeonGreen-tagged and HA-tagged proteins; lysates (300 mM NaCl, 0.5% IGEPAL CA-630) treated with benzonase, diluted to 150 mM NaCl, mNeonGreen-Trap magnetic agarose beads 1 hr at 4°C; washes with 150 mM and 500 mM NaCl; immunoblot with anti-HA
T1 sequence: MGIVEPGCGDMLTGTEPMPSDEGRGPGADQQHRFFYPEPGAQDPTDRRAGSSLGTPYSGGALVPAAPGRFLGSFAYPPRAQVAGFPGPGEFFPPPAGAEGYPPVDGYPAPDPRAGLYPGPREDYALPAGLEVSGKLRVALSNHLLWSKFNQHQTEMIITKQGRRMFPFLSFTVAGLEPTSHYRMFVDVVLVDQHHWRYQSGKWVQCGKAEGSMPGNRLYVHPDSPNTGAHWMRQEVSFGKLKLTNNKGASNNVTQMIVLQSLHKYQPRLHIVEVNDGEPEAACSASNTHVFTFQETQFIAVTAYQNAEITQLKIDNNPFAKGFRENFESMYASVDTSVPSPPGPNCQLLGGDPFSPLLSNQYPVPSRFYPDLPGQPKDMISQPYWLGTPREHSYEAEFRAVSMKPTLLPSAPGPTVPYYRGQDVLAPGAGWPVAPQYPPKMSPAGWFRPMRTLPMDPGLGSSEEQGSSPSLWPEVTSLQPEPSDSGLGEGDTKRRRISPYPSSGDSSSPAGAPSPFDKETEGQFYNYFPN

[2] = target: T2, mNeonGreen-tagged T-bet DNA binding domain (aa 135-326) Q305W (mouse) (UniProt Q9JKD8); assay: as above
T2 sequence: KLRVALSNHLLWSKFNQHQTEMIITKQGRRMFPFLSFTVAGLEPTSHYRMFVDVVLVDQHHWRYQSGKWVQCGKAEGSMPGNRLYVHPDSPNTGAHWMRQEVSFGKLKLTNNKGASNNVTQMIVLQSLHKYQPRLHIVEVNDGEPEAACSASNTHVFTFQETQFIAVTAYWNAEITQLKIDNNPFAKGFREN

[3] = target: T3, mNeonGreen-tagged T-bet DNA binding domain (aa 135-326), wild type (mouse) (UniProt Q9JKD8); assay: as above
T3 sequence: T2 sequence with W171Q

[4] = target: T4, mNeonGreen-tagged T-bet DNA binding domain (aa 135-326) I257E (mouse) (UniProt Q9JKD8); assay: FRET or BRET; FLIM-FRET (time-domain fluorescence lifetime imaging of mTagBFP donor with mNeonGreen acceptor) in transfected HEK293T cells fixed with 2% formaldehyde 36 hrs after transfection
T4 sequence: T2 sequence with I123E, W171Q

[5] = target: T5, mNeonGreen-tagged T-bet DNA binding domain (aa 135-326) R163A/R164A (mouse) (UniProt Q9JKD8); assay: FRET or BRET; flow-cytometric FRET in HEK293T cells co-transfected with 730 ng of each vector for mTagBFP- and mNeonGreen-tagged proteins; read 32 hours after transfection; 405 nm laser line, 530/30 bandpass filter; DFRET efficiency
T5 sequence: T2 sequence with R29A, R30A, W171Q

[6] = target: T4, mNeonGreen-tagged T-bet DNA binding domain (aa 135-326) I257E (mouse); assay: as above
[7] = target: T6, mNeonGreen-tagged T-bet DNA binding domain (aa 135-326) R324W (mouse) (UniProt Q9JKD8); assay: as above
T6 sequence: T2 sequence with W171Q, R190W

[8] = target: T3, mNeonGreen-tagged T-bet DNA binding domain (aa 135-326), wild type (mouse); assay: as above

binding [1]: binds
Substance: N-terminally double-HA-tagged GATA3 K346A + H348L (from UniProt P23772 1-443)

binding [1]: binds
Substance: N-terminally double-HA-tagged GATA3, wild type (from UniProt P23772 1-443)

Continued, substance first:

Substance: N-terminally double-HA-tagged GATA3 G342S (from UniProt P23772 1-443)
binding [1]: binds

Substance: full-length GATA3 with C-terminal double HA tag (from UniProt P23772 1-443)
binding [2]: binds | binding [3]: binds

Substance: mTagBFP-tagged GATA3 DNA binding domain (aa 259-369) (from UniProt P23772 259-369) (domain or fragment)
binding [4]: no binding | binding [5]: no binding | binding [6]: no binding | binding [7]: no binding | binding [8]: binds
